# According to PubChem BioAssay AID1745845 (National Center for Advancing Translational Sciences (NCATS), 2022):
# Among all 360,000 compounds or so, about 2,600 (0.72%) were called active. Inconclusive results, whose numbers are uncertain, are shown with a selection of clear calls. The call rests on the fitted dose curve; in most records, active means well fitted inhibition curve with a large enough effect; inconclusive means small, poorly fitted or top-dose-only effect; inactive means no such curve, though single readings can be large or run the other way. Where the call is inconclusive, the potency comes from a doubtful curve fit.
# Assay: Primary qHTS for Inhibitors of ATXN expression; further: nearly all actives have a fitted effect of over 55% in size
# Settings: HEK-293 ATXN2-luciferase reporter, luminescence, 24 h; activity change, negative = inhibition: at 57 µM (top of the series)
# Procedure, shortened: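 qHTS (up to 57 uM final) was run with 24 h compound exposure of reporter cells at 37 °C. Each well was multiplexed: SteadyGlo luminescence measured ATXN2-luciferase expression after a fluorogenic Gly-Phe-AFC viability readout (25 uM final).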
# On the % scale 0 is the no-effect control and ±100 the full control effect; potency means the concentration at half of the fitted maximal effect; tags describe the fitted curve by direction and shape.
Structure (SMILES),Potency,"activity change, negative = inhibition"
Cc1cc(C)n(-c2nc(SCCN(C)C)c3c4c(sc3n2)COC(C)(C)C4)n1,"inconclusive: 22.4 µM [inhibitor, single point]",–
COc1ccc(NC(=O)COC(=O)CCc2ccc(S(=O)(=O)N3CCOCC3)cc2)c(OC)c1,inactive,–
Cc1oc(-c2ccc(Cl)cc2)nc1CN1CCCC(C(=O)NCc2ccco2)C1 (centres undefined),"inconclusive: 31.6 µM [inhibitor, partial curve, poor fit]",–
CN1CCN(C2CCN(c3ccc(Nc4nnc(Cl)c(Nc5ccccc5S(C)(=O)=O)n4)c(OC(CF)CF)c3)CC2)CC1,"inconclusive: 14.1 µM [inhibitor, partial curve, poor fit]",–
Cc1cccc(/C=C/C(=O)c2ccc([N+](=O)[O-])o2)c1,active: 10 µM,–
Nc1ccn([C@@H]2O[C@H](CNCC3=CCOc4ccc(O)cc43)[C@@H](O)[C@H]2O)c(=O)n1,inactive,–
Cc1c(C(=O)N2CCOCC2)sc(NC(=O)c2ccc([N+](=O)[O-])cc2)c1C#N,"inconclusive: 15 µM [inhibitor, partial curve, poor fit]",–
CCOC(=O)c1c(Nc2cccc(C)c2)nnc(-c2ccccc2)c1-c1ccccc1,"inconclusive: 22.4 µM [inhibitor, single point]",–
CCOC(=O)c1cnc(SCc2cccc(C)c2)nc1N,inactive,–
COc1cc(-c2nn3c(C4CCCCC4)nnc3s2)cc(OC)c1OC,inactive,–
O=C(CSc1nc2c(c(=O)n1-c1ccccc1)SCC2)N1CCN(c2ccccc2)CC1,inactive,–
CC(C)c1ccc(/C=C(\C#N)c2nc(-c3ccc(O)cc3)cs2)cc1,"inconclusive: 39.8 µM [inhibitor, single point]",–
FC(F)Oc1ccc(NC(=S)NCc2ccccc2)cc1Cl,"inconclusive: 39.8 µM [inhibitor, single point]",–
CN(C(=O)COC(=O)c1ccccc1C(=O)N1CCN(c2ccccc2)CC1)c1ccccc1,inactive,–
CSc1ccccc1NC(=O)Cc1ccccc1[N+](=O)[O-],inactive,–
CCOc1ccc(NC(=O)Cn2c(=O)cc(C)c3c(C)nn(-c4ccc(CC)cc4)c32)cc1,inactive,–
Nc1nc(SCC(=O)Nc2cc(Cl)ccc2Cl)n[nH]1,inactive,–
CCOc1cccc2sc(N(CCCN(C)C)C(=O)c3ccc(C(=O)c4ccccc4)cc3)nc12,"inconclusive: 28.2 µM [inhibitor, single point]",–
CCCCOc1ccc(C(=O)Nc2ccc3c(c2)CCCN3S(=O)(=O)c2ccc(C)cc2)cc1,inactive,–
NS(=O)(=O)c1ccc(N2N=C(c3ccccc3)CC2c2ccccc2Cl)cc1 (centres undefined),"inconclusive: 31.6 µM [inhibitor, partial curve, poor fit]",–
CN(C)CCN(C)Cc1c2ccccc2c(CN(C)CCN(C)C)c2ccccc12,"inconclusive: 37.7 µM [inhibitor, single point]",–
CC(=O)N(C1CC(C)C(C#N)(C#N)C1(C#N)C#N)N(C)C (centres undefined),"inconclusive: 37.7 µM [inhibitor, single point]",–
O=C(c1ccccc1CCc1ccccc1)N1CCCC1,inactive,–

Structure (SMILES),Potency,"activity change, negative = inhibition"
C/C(=C\C(=O)c1ccc(Br)cc1)Nc1cccc(Cl)c1,inactive,–
COc1ccc(Nc2nnc(SC(C(=O)Nc3cc(C)ccc3C)c3ccccc3)s2)cc1 (centres undefined),"inconclusive: 1.19 µM [inhibitor, partial curve, poor fit]",–
O=C(N/N=C/c1cc(Br)cc(Br)c1O)c1cccc(N2CCCC2=O)c1,"inconclusive: 17.8 µM [inhibitor, partial curve, poor fit]",–
Cc1nnnn1/C(=C\c1ccccc1)C(=O)OCC(=O)N1CC2(C)CC1CC(C)(C)C2 (centres undefined),"inconclusive: 37.7 µM [inhibitor, single point]",–
O=C(CCc1ccccc1)NNC(=O)c1ccccn1,"inconclusive: 29.9 µM [inhibitor, single point]",–
CN1CCN(C2=Cc3ccccc3Sc3cc(F)c(F)cc32)CC1,"inconclusive: 28.2 µM [inhibitor, partial curve, poor fit]",–
O=C(Nc1c2c(nn1-c1ccc(Cl)cc1)CS(=O)(=O)C2)c1cccc(Cl)c1,"inconclusive: 39.8 µM [inhibitor, single point]",–
CCCCCCCn1c(=O)c(C(=O)OC)c(N)c2ccccc21,"inconclusive: 20 µM [inhibitor, partial curve]",–
Cc1ccc(C)c(Cn2cnc3ccccc3c2=O)c1,inactive,–
O=C(O)/C=C/C(=O)NNc1ccc([N+](=O)[O-])cc1,–,inconclusive: -39.3% [inhibitor]
COc1ccccc1NS(=O)(=O)c1cc(NC(=O)c2ccc(Cl)nc2)ccc1Cl,active: 20 µM,–
Cc1[nH]c2ccccc2c1/C=C(\C#N)C(=O)NC(C)c1ccccc1 (centres undefined),inactive,–
CCc1nc2c(cnn2-c2ccc(Cl)cc2)c(=O)n1-c1ccc(OC)cc1,"inconclusive: 17.8 µM [inhibitor, partial curve, poor fit]",–
Cc1ccc(-c2cc(C(=O)Nc3cccnc3)c3ccccc3n2)o1,"inconclusive: 39.8 µM [inhibitor, single point]",–
NC(=O)CC(NC(=O)Cc1ccc(Br)cc1)c1ccc(NCc2ccc(F)c(F)c2)c([N+](=O)[O-])c1 (centres undefined),"inconclusive: 39.8 µM [inhibitor, single point]",–
OC(c1ccc2ccccc2c1)c1ncc(-c2ccc(C(F)(F)F)cc2)[nH]1 (centres undefined),"inconclusive: 39.8 µM [inhibitor, single point]",–
NC(=O)CC(NC(=O)Cc1ccc(Br)cc1)c1ccc(NC2CCCCCCC2)c([N+](=O)[O-])c1 (centres undefined),"inconclusive: 39.8 µM [inhibitor, single point]",–
COc1cc(/C=C2\C(=O)ON=C2c2ccc(Cl)cc2)ccc1O,"inconclusive: 39.8 µM [inhibitor, single point]",–
Cc1cccn2c(=O)c(C(=O)NC3CC(C)CC(C)(C)C3)c(O)nc12 (centres undefined),"inconclusive: 14.1 µM [inhibitor, partial curve]",–
CCOc1cc(N2CCOCC2)c(OCC)cc1NC(=O)COC(=O)c1ccccc1OC(F)F,"inconclusive: 25.1 µM [inhibitor, partial curve, poor fit]",–
c1ccc(-c2nc(-c3ccccn3)no2)cc1,active: 4.47 µM,–
Cc1ccc(S(=O)(=O)C2(C(=O)Nc3cccnc3)CC2)cc1,inactive,–
O=C(Cc1ccc(Cl)cc1)Nc1ccc(-c2nnc(-c3ccco3)o2)cc1,"inconclusive: 39.8 µM [inhibitor, single point]",–

Structure (SMILES),Potency,"activity change, negative = inhibition"
O=C(N/N=C/c1ccccc1)c1ccc(CN2C(=O)c3cccc4cccc2c34)cc1,inactive,–
COc1ccc(S(=O)(=O)Cc2ccc(C(=O)NCCCN3CCc4ccccc4C3)o2)cc1,inactive,–
Cc1noc2ncnc(N3CCCC(C(=O)Nc4cccc(C(F)(F)F)c4)C3)c12 (centres undefined),active: 20 µM,–
COc1ccc(OCCNC(=O)C2(C)CCN2Cc2ccc3ccccc3c2)cc1 (centres undefined),"inconclusive: 39.8 µM [inhibitor, single point]",–
CC(C)c1ccc(NC(=O)Cn2c(=O)oc3cc(S(=O)(=O)N4CCCC4)ccc32)cc1,inactive,–
Fc1ccc(-c2csc(NC(=S)Nc3ccccc3)n2)cc1,inactive,–
C=CCNC(=O)CCCC(=O)NCC=C,"inconclusive: 31.6 µM [inhibitor, partial curve, poor fit]",–
O=C(OCc1ccccc1)C1=[N+]([O-])OC(C(=O)OCc2ccccc2)C1c1c[nH]c2ccccc12 (centres undefined),"inconclusive: 37.7 µM [inhibitor, single point]",–
O=c1c2cc(Cl)ccc2[nH]c(=S)n1Cc1ccccn1,"inconclusive: 39.8 µM [inhibitor, single point]",–
COc1ccc2cc1Oc1ccc(cc1)C[C@H]1c3cc(c(OC)cc3CCN1C)Oc1c(O)c(OC)cc3c1[C@H](C2)N(C)CC3,active: 25.1 µM,–
CS(=O)(=O)c1ccc(C(=O)OCC(=O)N2CCN(CCC3CCCCC3)CC2)cc1[N+](=O)[O-],active: 3.55 µM,–
CCCc1[nH]nc2c1C(c1cccc(OC(=O)c3ccco3)c1)C(C#N)=C(N)O2 (centres undefined),inactive,–
CCOc1ccc(/C=N/n2c(C3CCCCC3)n[nH]c2=S)cc1,inactive,–
OCCN1CCN(Cc2cc(Cl)c3cccnc3c2O)CC1,active: 22.4 µM,–
CCc1ccc(NC(=O)C2CCN(S(=O)(=O)c3ccc4c(c3)NC(=O)C(C)S4)CC2)cc1 (centres undefined),"inconclusive: 7.08 µM [inhibitor, partial curve]",–
CCc1ccc(NC(=O)c2sc3nc(C)cc(C)c3c2NC(=O)c2ccccc2OC)cc1,inactive,–
COc1ccc(-c2nn(-c3ccccc3)cc2/C=N/N2C(=O)CSC2=S)cc1,"inconclusive: 39.8 µM [inhibitor, single point]",–
Cc1ccc(C2=NN(C(=O)CCl)C(c3ccco3)C2)o1 (centres undefined),"inconclusive: 35.5 µM [inhibitor, single point]",–
Cc1ccc(OCCn2cc(C=O)c3ccccc32)cc1,"inconclusive: 28.2 µM [inhibitor, partial curve, poor fit]",–
CCOc1nc2cccc(C(=O)O)c2n1Cc1ccc(-c2ccccc2-c2nn[nH]n2)cc1,"inconclusive: 4.47 µM [inhibitor, partial curve, poor fit]",–
CC1(C)CC(=O)C(/C=N/n2cnc3ccccc3c2=O)=C(O)C1,inactive,–
COc1ccc(/C=N/Nc2cc(C)nc3ccc(Br)cc23)cc1,–,inconclusive: -98.3% [inhibitor]
O=C1c2ccccc2-c2onc3c(NCCO)cc(NC4CCCCC4)c1c23,"inconclusive: 39.8 µM [inhibitor, single point]",–
